The supplement of paper PMC8792480
This is one part of the list. Many values rest on one well or one pass, so single values are uncertain.

What was measured:
NCI-H460 [1] = assay: cell-surface PD-L1 MFI ratio relative to radiation alone (isotype-subtracted); higher = higher PD-L1 surface expression; conditions: inducer: radiation 8 Gy; 10 µM; 24 h
Description: (§1)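 A549 and H460 NSCLC cells were treated with each library drug at 10 uM, then with radiation (8 Gy) or cisplatin (4 uM), and incubated for 24 h. Cell-surface PD-L1 was measured by flow cytometry as an MFI ratio: (MFI drug+inducer - MFI isotype)/(MFI inducer alone - MFI isotype). Hits were defined as ratio < 0.75.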

NCI-H460 [2] = assay: cell-surface PD-L1 MFI ratio relative to cisplatin alone (isotype-subtracted); higher = higher PD-L1 surface expression; conditions: inducer: cisplatin 4 uM; 10 µM; 24 h
Description: as §1
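Wherever cell-surface PD-L1 MFI ratio relative to radiation alone (isotype-subtracted) is given: surface PD-L1 on NSCLC cells stained with a PE-labelled anti-human PD-L1 antibody before flow cytometry, screening a library of roughly two hundred mostly kinase and epigenetic inhibitors.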

SMILES | cell-surface PD-L1 MFI ratio (NCI-H460 [1]) | cell-surface PD-L1 MFI ratio (NCI-H460 [2])
Cc1ccc(C(=O)Nc2cccc(C(F)(F)F)c2)cc1Nc1nc(-c2cccnc2)nc2c1cnn2C | inactive: 1.04 | inactive: 0.984
CCc1cncnc1N1CCN(Cc2nc3ccc(C(F)(F)F)cc3[nH]2)CC1 | inactive: 1.01 | inactive: 1.43
COc1ccc(C2CC(c3ccccc3)=NN2c2ccc(S(N)(=O)=O)cc2)cc1 (stereo not given) | inactive: 1.92 | inactive: 0.784
CCc1ccc(C(=O)Nc2cc(CN3CCN(C)CC3)cc(C(F)(F)F)c2)cc1C#Cc1cnc2ccnn2c1 | inactive: 1.04 | inactive: 0.84
CC(=O)O[C@H]1C(=O)[C@@]2(C)[C@H]([C@H](OC(=O)c3ccccc3)[C@]3(O)C[C@H](OC(=O)[C@H](O)[C@@H](NC(=O)c4ccccc4)c4ccccc4)C(C)=C1C3(C)C)[C@]1(OC(C)=O)CO[C@@H]1C[C@@H]2O [Paclitaxel] | inactive: 1.29 | inactive: 0.773
CC[C@@H]1C(=O)N(C)c2cnc(Nc3ccc(C(=O)N[C@H]4CC[C@H](N5CCN(CC6CC6)CC5)CC4)cc3OC)nc2N1C(C)C [Volasertib (BI 6727)] | inactive: 1.4 | inactive: 0.856
Cc1nc(Nc2n[nH]c3c2CN(C(=O)N[C@H](CN(C)C)c2ccccc2)C3(C)C)c2sccc2n1 | active: 0.557 | inactive: 1.44
CS(=O)(=O)CCNCc1ccc(-c2ccc3ncnc(Nc4ccc(OCc5cccc(F)c5)c(Cl)c4)c3c2)o1 | inactive: 1.25 | inactive: 1.18
CC(=O)Nc1cccc(-n2c(=O)n(C3CC3)c(=O)c3c(Nc4ccc(I)cc4F)n(C)c(=O)c(C)c32)c1 | inactive: 0.923 | inactive: 0.848
CCOC(=O)C1=C(C)NC(=S)NC1c1cccc(O)c1 (stereo not given) [Monastrol] | inactive: 0.988 | active: 0.681
CC(C)(C(=O)NCC(F)(F)C(F)(F)F)C(=O)N[C@@H]1C(=O)Nc2ccccc2-c2ccccc21 | inactive: 1.29 | inactive: 1.07
Nc1nc(F)nc2c1ncn2[C@@H]1O[C@H](CO)[C@@H](O)[C@@H]1O [Fludarabine] | inactive: 1.06 | inactive: 1.3
FC(F)(F)c1ccc(CNc2ccc(Cc3c[nH]c4ncc(Cl)cc34)cn2)cn1 [Pexidartinib (PLX3397)] | inactive: 0.887 | inactive: 1.34
Cc1cc(-c2ncc(CC(=O)Nc3ccc(-c4cnccn4)cn3)cc2C)ccn1 | inactive: 1.43 | inactive: 1.72
COc1ncc(-c2ccc3nccc(-c4ccnnc4)c3c2)cc1NS(=O)(=O)c1ccc(F)cc1F | inactive: 0.798 | active: 0.603
CC(C)n1c(=O)n(C)c2cnc3cc(F)c(-c4ccc(OCCCN5CCCCC5)nc4)cc3c21 | active: 0.732 | inactive: 0.944
Cc1cc(C(C)Nc2ccccc2)c2nc(N3CCOCC3)cc(=O)n2c1 (stereo not given) | inactive: 0.976 | inactive: 0.952
COc1ccc2c(c1)[C@]1(C[C@H]1c1ccc3c(/C=C/c4ccc(CN5C[C@@H](C)O[C@@H](C)C5)cc4)n[nH]c3c1)C(=O)N2 | inactive: 1.24 | inactive: 1.85
O=C(c1ccc(Nc2nccc(-c3cc4ccccc4s3)n2)cc1)N1CCC(N2CCCC2)CC1 [IKK-16 (IKK Inhibitor VII)] | inactive: 1.05 | inactive: 1.15
O=C(O)CCCc1cc2cc(Cl)ccc2n1S(=O)(=O)c1ccc2ncsc2c1 [Lanifibranor(IVA-337)] | inactive: 1.23 | inactive: 1.21
